Data taken from the supplement of paper PMC4604168 (melanoma cell lines).
This is one part of the list. Most values come without repeats; read them as rough.

Assays:
Assay in all cases: cell count relative to DMSO control; melanoma cells; higher = more viable cells
Settings in all cases: library dose: standard library concentration; 72 h
G361 = tested on: G361
IPC-298 = tested on: IPC-298
IST-MEL1 = tested on: IST-MEL1
LB2518-MEL = tested on: LB2518-MEL
LOXIMVI = tested on: LOXIMVI
MEL-HO = tested on: MEL-HO
MZ2-MEL = tested on: MZ2-MEL
MeWo = tested on: MeWo
RPMI7951 = tested on: RPMI7951
RVH-421 = tested on: RVH-421
SkMel28 = tested on: SkMel28
SkMel2 = tested on: SkMel2
SkMel30 = tested on: SkMel30
SkMel5 = tested on: SkMel5
UACC257 = tested on: UACC257
UACC62 = tested on: UACC62
WM115 = tested on: WM115
WM1716 = tested on: WM1716
WM1745 = tested on: WM1745
WM3526 = tested on: WM3526
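Further: cells treated in 1,536-well plates, then fixed and DAPI-stained, with nuclei counted from automated high-throughput microscope images.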

Compound	cell count (G361) [%]	cell count (IPC-298) [%]	cell count (IST-MEL1) [%]	cell count (LB2518-MEL) [%]	cell count (LOXIMVI) [%]	cell count (MEL-HO) [%]	cell count (MZ2-MEL) [%]	cell count (MeWo) [%]	cell count (RPMI7951) [%]	cell count (RVH-421) [%]	cell count (SkMel28) [%]	cell count (SkMel2) [%]	cell count (SkMel30) [%]	cell count (SkMel5) [%]	cell count (UACC257) [%]	cell count (UACC62) [%]	cell count (WM115) [%]	cell count (WM1716) [%]	cell count (WM1745) [%]	cell count (WM3526) [%]
Cn1nnc2c(C(N)=O)ncn2c1=O [temozolomide] + c1cc(-c2cnn3cc(-c4ccc(OCCN5CCCCC5)cc4)cnc23)ccn1 [Dorsomorphin] (first compound 10 µM, partner dose 2 µM)	77	67.3	87.2	77	118	101	56.2	74.2	87	111	39.9	93.2	58	51.5	76.1	39.5	76.1	53.7	67.2	90.4
Cn1nnc2c(C(N)=O)ncn2c1=O [temozolomide] + COC(=O)c1sccc1S(=O)(=O)Nc1ccc(Nc2ccccc2)cc1OC [GSK0660] (first compound 10 µM, partner dose 5 µM)	107	82.7	86	112	83.6	106	92.3	108	90.3	124	41.1	113	69.6	93.6	103	73.9	83.5	72.3	94.5	99.2
O=C(O)[C@@H]1[O][Sb](=[O])([O][Sb]2(=[O])[O][C@H]([C@H](O)CO)[C@H](O)[C@H](C(=O)O)[O]2)[O][C@H]([C@H](O)CO)[C@@H]1O (stereo not given in full) [stibogluconate] + CC(C)(C)c1cnc(CSc2cnc(NC(=O)C3CCNCC3)s2)o1 [SNS-032] (first compound 10 µM, partner dose 0.05 µM)	93.4	124	89	84.6	70.9	91.7	108	89.3	25.5	81.1	55.5	83.7	85.5	73.8	100	57.1	86.9	81.8	87.3	93.5
O=C(O)c1ccc2c(c1)nc(Nc1cccc(Cl)c1)c1ccncc12 + NCC(=O)Nc1ccc(-n2nc(C(F)(F)F)cc2-c2ccc3c(ccc4ccccc43)c2)cc1 [OSU03012] (first compound 2 µM, partner dose 5 µM)	55.3	64.1	93.7	103	74.2	64.5	69.1	82.5	53.1	89.3	15.3	19.9	29.4	48.6	61.8	57.4	79.6	53.9	78.3	45.8
Cn1nnc2c(C(N)=O)ncn2c1=O [temozolomide] + O=C(Nc1cccc(Cl)c1)Nc1ncc(CCNc2ncnc3ccsc23)s1 [SNS314] (first compound 10 µM, partner dose 0.004 µM)	79.2	77.6	43.5	70.2	70.4	78.4	78.6	57.7	71	74	54.3	94	84.5	110	77.5	87.7	34.7	45	80.1	69.3
Cc1cc(N2CCOCC2)cc2[nH]c(-c3c(NC[C@@H](O)c4cccc(Cl)c4)cc[nH]c3=O)nc12 + O=C(O)C(=O)Nc1sc2c(c1C(=O)O)CCNC2 [TCS401] (first compound 1 µM, partner dose 8.33333 µM)	92.8	107	98.5	83.8	94.3	96.9	106	61.8	96.8	111	112	82.8	78.3	69.2	86	128	89.5	93.5	51.9	65
O=C(O)[C@@H]1[O][Sb](=[O])([O][Sb]2(=[O])[O][C@H]([C@H](O)CO)[C@H](O)[C@H](C(=O)O)[O]2)[O][C@H]([C@H](O)CO)[C@@H]1O (stereo not given in full) [stibogluconate] + CO[C@@H]1[C@H](N(C)C(=O)c2ccccc2)C[C@H]2O[C@]1(C)n1c3ccccc3c3c4c(c5c6ccccc6n2c5c31)C(=O)NC4 [Midostaurin] (first compound 10 µM, partner dose 0.4 µM)	42.8	73.6	51	68.7	57.3	57.5	54.4	55.7	35.6	64.4	66	32.3	55.2	51.9	55.5	69.8	33.7	32.8	32.7	70.7
O=C(O)[C@@H]1[O][Sb](=[O])([O][Sb]2(=[O])[O][C@H]([C@H](O)CO)[C@H](O)[C@H](C(=O)O)[O]2)[O][C@H]([C@H](O)CO)[C@@H]1O (stereo not given in full) [stibogluconate] + O=C(O)c1ccc2c(c1)nc(Nc1cccc(Cl)c1)c1ccncc12 [CX4945] (first compound 10 µM, partner dose 2 µM)	65.1	59.7	85.6	91.3	43.4	60.9	60.7	94.1	62.5	100	56.4	61.1	60.9	88	89.9	73.4	76.1	106	57.9	70.3
